Measurements: paper PMC3297496
Results are given in words; binding and its absence hold for the method and conditions named. Some entries that bind do so weakly or less than the wild type. Sequences can lack the tags named with a protein.

Key:
[1] = target: T1, DOP-2IL-CI (DOP-2XL amino acids 64-849), split-ubiquitin bait in pBT3-SUC (C. elegans) (UniProt E7EM37); experiment: two-hybrid; split-ubiquitin pair-wise assay in yeast: DOP-2XL baits (full length in pBT3-STE, truncations in pBT3-SUC) with NubG preys (pPR3-N, pPR3-STE, pDL2-Alg5); growth on SD/-Ade-His-Leu-Trp with 1 mM 3-AT and X-gal filter assay
T1 sequence: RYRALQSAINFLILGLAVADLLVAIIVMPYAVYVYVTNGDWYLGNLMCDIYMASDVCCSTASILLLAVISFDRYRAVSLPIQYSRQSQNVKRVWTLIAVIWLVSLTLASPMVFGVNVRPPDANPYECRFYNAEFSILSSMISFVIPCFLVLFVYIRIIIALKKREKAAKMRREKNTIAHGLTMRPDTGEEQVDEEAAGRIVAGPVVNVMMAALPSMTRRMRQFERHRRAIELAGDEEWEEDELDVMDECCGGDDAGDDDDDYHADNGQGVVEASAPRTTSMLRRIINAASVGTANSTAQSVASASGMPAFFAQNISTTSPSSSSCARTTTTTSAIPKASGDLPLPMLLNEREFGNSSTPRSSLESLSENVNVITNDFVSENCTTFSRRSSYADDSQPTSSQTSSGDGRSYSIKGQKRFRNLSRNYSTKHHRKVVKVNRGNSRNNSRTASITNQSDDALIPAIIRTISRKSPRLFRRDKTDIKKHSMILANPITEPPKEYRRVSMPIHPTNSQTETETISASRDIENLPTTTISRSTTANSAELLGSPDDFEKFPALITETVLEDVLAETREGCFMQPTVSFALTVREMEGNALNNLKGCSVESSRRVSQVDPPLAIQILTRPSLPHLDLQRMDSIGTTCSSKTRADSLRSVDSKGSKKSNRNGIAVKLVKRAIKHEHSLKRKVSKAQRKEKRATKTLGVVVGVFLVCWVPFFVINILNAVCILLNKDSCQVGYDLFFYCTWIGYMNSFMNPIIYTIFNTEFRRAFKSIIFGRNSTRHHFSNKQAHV

[2] = target: T2, C. elegans D2-like dopamine receptor DOP-2XL, full-length split-ubiquitin bait (dop-2c in pBT3-STE) (C. elegans) (UniProt E7EM37); experiment: two-hybrid; split-ubiquitin library screen: full-length dop-2c bait (pBT3-STE, Cub-LexA-VP16) in S. cerevisiae NMY51 against an adult C. elegans cDNA library in pPR3-N (NubG); selection on -Ade-His-Leu-Trp + 1 mM 3-AT, X-gal filter lift-off assay
T2 sequence: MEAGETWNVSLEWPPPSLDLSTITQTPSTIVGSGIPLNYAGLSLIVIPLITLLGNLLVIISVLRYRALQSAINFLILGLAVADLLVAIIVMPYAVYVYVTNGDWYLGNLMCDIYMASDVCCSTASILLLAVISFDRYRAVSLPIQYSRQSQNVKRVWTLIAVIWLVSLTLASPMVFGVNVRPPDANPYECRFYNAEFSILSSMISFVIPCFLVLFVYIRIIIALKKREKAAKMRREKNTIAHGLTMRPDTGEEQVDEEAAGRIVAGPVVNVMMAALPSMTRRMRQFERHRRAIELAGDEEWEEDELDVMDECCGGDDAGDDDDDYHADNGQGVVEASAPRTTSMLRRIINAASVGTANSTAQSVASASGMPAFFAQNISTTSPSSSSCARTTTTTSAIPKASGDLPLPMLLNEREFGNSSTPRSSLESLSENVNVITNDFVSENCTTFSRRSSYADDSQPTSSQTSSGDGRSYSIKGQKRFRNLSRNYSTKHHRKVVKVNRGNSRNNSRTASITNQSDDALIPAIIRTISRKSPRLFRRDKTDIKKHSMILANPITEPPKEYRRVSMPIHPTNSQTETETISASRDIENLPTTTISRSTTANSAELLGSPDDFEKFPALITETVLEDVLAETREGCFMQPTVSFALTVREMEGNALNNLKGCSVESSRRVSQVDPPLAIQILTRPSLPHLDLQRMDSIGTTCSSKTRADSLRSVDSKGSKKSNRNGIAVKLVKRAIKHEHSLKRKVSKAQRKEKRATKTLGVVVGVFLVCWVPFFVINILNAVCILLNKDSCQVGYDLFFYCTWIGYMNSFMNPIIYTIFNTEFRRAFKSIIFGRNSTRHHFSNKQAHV

B1: GPA-14, split-ubiquitin prey in pPR3-N (NubG fusion) (protein, UniProt Q9BIG2 1-408)
chain: MAFSCFDKFSYTYCYQCMHGPDGCMVPSRNGEGTELYAHSEELEAKLRELARRGHMEIEKELALEKKTYGSHIKILILGGPLSGKSTIFKQMQIIHVDGFKTDQELIQYRGLIDNNIRDIYLQLIAGSRVVGIPLDPIEHITYEIDEIYAPMSDAFSVRTISELLEPLTEFWNSKQIQEIYKRRCEFELLDSTKYYLENLTRIADPTYLPNQEDIVHSRKATMSINSIVFEYTGVSLLMIDVGGQRSERKKWLHLFDDAKVVLFVIDLTGYAKRSEESRMELSRFPKFFRDVGSNAYDMKVALKIFNEVAAASALANAVFLLFFNKVDLFKEILSQVNLQPCFSKFDGENTYEETSKYICEKFIRAASSKKSVFPHFTTATNTENVKLVFRACMESVFKANAKATGLS
**Q.** Which results are given for B1?
**A.** binding [1]: binds; binding [2]: binds
